# In the RNAGym collection of RNA variant scans (doi:10.7554/elife.90254):
# Read counts are not given, so values of variants with three or more changes are uncertain.
# B1: LINE1-full (parent)
# chain: UACGUAGGUGGUUUUCCCCUGAUAGUGCUAAGGGGGCCUGGAAGUUUGGACUGGGCAGAGCUCAACACAGCGUGGCAAAGUGGCUGUGGCUAGACUGCCUCUCUGGAUUCCUCGUCACUCAGCAGGGCAUCUCUGAGAGAAAUGCC
# Variants of: B1
# Assay: self-cleavage, relative activity (ratio to wild type); higher = more cleavage; in vitro, sequencing; the parent is a self-cleaving ribozyme
row,Variant,self-cleavage
1,G7U U104C A107G A124C,1.53
2,U62C A65U A124U,0.06
3,U39C U130C C145G,1.57
4,A92G U102C A107U,0
5,U14C U20C U85G,0.08
6,G7A U14C A78G A138G,1.15
7,U1C A50G A79G U102C,2.12
8,G36A U102C G105A U143C,1.28
9,U5A G58A A94U,0.08
10,G11A U14A U134C A138G,0.84
11,A6G A50G A136G,1.7
12,U9C C16U U47C U108C,1.15
13,G21A A59G U96G,0.07
14,U39C A124U U130C,1.23
15,A6G C101U A124G U134C,1.97
16,A6G U115A A136G,1.8
17,U39C C71U U100C,1.1
18,U12C A64G U87A U143C,0.15
19,A42G A77G U143A,2.51
20,U13C G35U G105U,1.23
21,U1A U14C A79G U85A,0.32
22,U26A A124U A129G,1.48
23,G21A A57G U62C,0
24,U13C C28U A57U,0.11

row,Variant,self-cleavage
1,U13G A24G U62C A140U,0.53
2,A22G A30U U85C,0.75
3,U23C A43G A77G U104A,0.85
4,A78G A138U A141G,1.71
5,G33A A65U U96A A141G,0.03
6,U13C U52C U132A,0.76
7,A2G U9A U13C U85C U87C,1.84
8,U20A A30U G122A,1.29
9,A50U A69G A138G,1.15
10,U20C U45C C95U U143A,0.17
11,U12C G86A A136G A138U,0.11
12,C19U G49C A107G,1.26
13,U20A U119A U130C U143C,1.59
14,U12C A59G U102C,0.2
15,A6G U14A G55A A107G,0.15
16,A42G U62C A64U A78G A117U A140C,0
17,A50G A59G U112A,0.2
18,U20A U91C G114A,0.84
19,U15C A138G A140G,2.3
20,G11A A64U A107G A124U,0.55
21,U26A A50G A107U,0.92
22,A2G U45C U108C A121U,2.12
23,U14C A57C A78U U100A U102C U143C,0
24,G4C U52C A57U,0.06

row,Variant,self-cleavage
1,G41A A77G U91C U130C U132C,0
2,U26C A64G A141G U143C,0.45
3,G34U U100C A136G,2.15
4,U12G C38A A43U U132A,2.63
5,U9A U20G U52C,0.28
6,U12C G34U A140G,1.73
7,U20C U104C A124G,2.3
8,U15A A30U G41A U52A A57G,0.54
9,U13C U104C C116A,1.62
10,U1C G80A U104A,0.93
11,U20C U87A U109C,0.44
12,A78G A107G A129G,1.51
13,A42C U87A C103U U112C,0.04
14,A6G U26A A92U,0.69
15,U46A U85C A141G,0.04
16,U45C G82A A142G,1.58
17,G33A U46C C66U A69G C103U U134C,0.08
18,G8A A43G U96C,0
19,U20C A64G A77U A138U,0.35
20,G33U G114A A138G,1.32
21,A57U G89A A129G,0.02
22,G93U U100C A129G,0.23
23,A65U A67G U85C U130C,0.51
24,U20A U52C A141G,0.97

row,Variant,self-cleavage
1,G72A U130C U134C,2.4
2,U14C G36U U52C U62C,0.25
3,A2G A77U A138G,0.78
4,A43G U45C U81A,0.85
5,A124G A129G U132C,1.1
6,U26C A64G U132C,0.41
7,U20C A24U A117G,2.87
8,A57G C131U U143C,0.77
9,U14G A31G U52A,1.04
10,U5C G72U U115A C131U,1.19
11,A64G G83A U85C,0.05
12,U104C U119C A142G,2.71
13,U20C U62C U100A,0.13
14,A6G U52C G58A,0.09
15,A64U C98U U109A A136C,0
16,U13C U52G U108C,0.97
17,U14A A43G C98U,0.52
18,U14C A79G U96C C103U U132C,0.19
19,U9C A42G G135A,0.53
20,A2U U13C A57U U62C,0.23
21,G7C A22G A42U U46C U119C,1.02
22,U62C G93A U115A U130C,0.05
23,G41A A94U U119A,0.35
24,A6C G25A U47A A57U U62C A67G,0.11

row,Variant,self-cleavage
1,A22G U134A U143C,0.92
2,C95U U119A A121U,0.13
3,A59U A69G U130C,0.55
4,C51U A107G U134A U143A,0.86
5,U81A U87A A124G,0.26
6,U15C U45C G126A,1.08
7,C28A G32A A77G U112A,1.18
8,U14C G41A A121G A141G,1.27
9,G53A U81A U108C G114A,2.14
10,A22G G74A U130C,1.3
11,U20A G36A A42G,0.93
12,U96A U115C A141G A142G,0.06
13,U47C A64G A65U U115C A138U,0
14,A2G U12C U29C A140G,0.64
15,U13C A94U U108C,0.39
16,G97A C128U G135U,0.31
17,U9A A31U A92G,0.69
18,U9A U108C U143C,2.16
19,A59G A67U U109C,0
20,U26A U45C A67G A140U,0.68
21,U46C U132C A140G,1.25
22,U39A A77G A141G,2.54
23,U26C A77U A117U A129G,2.19
24,U14C U52A A94U A141U,0.35

row,Variant,self-cleavage
1,A30G G32A A78G U85C,0.26
2,U73A U91C A107G U119C,0
3,U12G A64U A124G A142G,0.41
4,U45A C71A G89A,0.02
5,C3U U20A U108A A117G G144A,0.53
6,A59G U100A U102A,0.17
7,U46C U52A A59G G114U,0.06
8,A69G U81G A107G,0.44
9,U62C U85C U108C U132C,0.37
10,U85C C98U C133A,0.05
11,A22G A42G U115C,2.76
12,A22G A42G U132C,1.45
13,U13C U39A U73A,1.31
14,U13C A77G U108C,0.71
15,U45C A79G G86A A136G,0.06
16,U15C G106A A107G,1.9
17,U46C A79G U102A,1.84
18,A6G U15C A121G,2.02
19,A65C U102C U143C,0.03
20,C51U U62C U109C,0.25
21,U5C A6U U87A U134C,0.69
22,U14A A69G U108C,0.31
23,U14C U100C A141G,1.68
24,U14A A65G A78G,0

row,Variant,self-cleavage
1,A50U A57G A117G,0.18
2,U12C U39A A69G A107U G135A A141G,0.88
3,U15G A117G G126A,0.67
4,G25C A64G U87C,0
5,A22G U39C A77U,0.49
6,A92U U96C A121G U134C U143C,0
7,U9C A65G U100A,0.17
8,U39C U102A G106A,1.42
9,U1C C84G A124G U134A,0.08
10,A22U A67G U96C G127U,0.12
11,U5C A6G A42G,0
12,U14C U23C U39C A59G,0
13,U12A U46C A57U U109C,0.09
14,U13C U20A A69U U73C U100C,0.51
15,C3U A43G U91C U96C,0
16,U46C C51A A59U,1.07
17,U9C U23C A43G,0
18,U15C C19U A92G A117U C146U,0.23
19,A42G U85C U130C A141U,0.14
20,A31C G55C A57C C71U A117G,0.23
21,U13C U20C G36U A129G U130A,0.9
22,U26C U46C G137U,0.97
23,A24U A64C A92G A138G,0
